Measured values: the supplement of paper PMC8183993
Counter-ions that a name gives are not always drawn. Whole data set: some 3,100 compounds, median “mean cytoplasmic OPP incorporation (global translation) relative to DMSO” near 100, cut for the lowest 2% near 56. The list shows a part of the results.

The compounds below were run on U2OS (assay: mean cytoplasmic OPP incorporation (global translation) relative to DMSO (% of DMSO); higher = more protein synthesis). Conditions: 10 µM; 24 h.
Description: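 Primary image-based screen in U2OS cells: compounds at 10 uM for 24 h, then a 1 h o-propargyl-puromycin (OPP) pulse, click labelling, and high-throughput microscopy. Mean cytoplasmic OPP intensity and nuclei count were normalised to DMSO wells within each plate (DMSO = 100) and averaged over triplicate plates.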

Compound	mean cytoplasmic OPP incorporation
CCN(CCCc1ccccc1)CCCc1ccccc1 [Alverine citrate salt]	92.5
COc1cc2c(cc1OC)CN(CCc1ccc(NC(=O)c3cccc4c(=O)c5cccc(OC)c5[nH]c34)cc1)CC2 [Elacridar]	112
CCn1c(-c2nonc2N)nc2cnc(Oc3cccc(NC(=O)c4ccc(OCCN5CCOCC5)cc4)c3)cc21	119
CC[C@]1(O)C[C@@H]2CN(CCc3c([nH]c4ccccc34)[C@@](C(=O)OC)(c3cc4c(cc3OC)N(C)[C@H]3[C@@](O)(C(=O)OC)[C@H](OC(C)=O)[C@]5(CC)C=CCN6CC[C@]43[C@@H]65)C2)C1 [Vinblastine]	116
CC[C@]1(O)C[C@@H]2CN(CCc3c([nH]c4ccccc34)[C@@](C(=O)OC)(c3cc4c(cc3OC)N(C)[C@H]3[C@@](O)(C(=O)OC)[C@H](OC(C)=O)[C@]5(CC)C=CCN6CC[C@]43[C@@H]65)C2)C1 [Vinblastine sulfate]	119
Nc1cc(N2CCCCC2)nc(N)[n+]1OS(=O)(=O)[O-] [Minoxidil sulfate]	96.9
Cc1cc(CS(=O)(=O)c2ccccc2)cc(OCc2ccc(CN3CCC[C@@H]3CO)cc2)c1	129
Clc1ccc(COC(Cn2ccnc2)c2ccc(Cl)cc2Cl)cc1 (stereo unspecified) [Econazole nitrate]	101
C[C@H](CCC(=O)NCC(=O)O)[C@H]1CC[C@H]2[C@@H]3[C@H](O)C[C@@H]4C[C@H](O)CC[C@]4(C)[C@H]3C[C@H](O)[C@]12C [Glycocholic acid]	102
Clc1ccccc1C(c1ccccc1)(c1ccccc1)n1ccnc1 [Clotrimazole]	98.1
O=S(=O)(O)CCSSCCS(=O)(=O)O [Dimesna]	99.8
CO[C@H]1C(=O)[C@]2(C)[C@@H](OC)C[C@H]3OC[C@@]3(OC(C)=O)[C@H]2[C@H](OC(=O)c2ccccc2)[C@]2(O)C[C@H](OC(=O)[C@H](O)[C@@H](NC(=O)OC(C)(C)C)c3ccccc3)C(C)=C1C2(C)C [Cabazitaxel (Jevtana)]	109
CCCC(C(=O)OCCN(CC)CC)(c1ccccc1)c1ccccc1 [Proadifen hydrochloride]	109
C=CC[N@@+]12CC[C@@]34c5ccccc5N5/C=C6/[C@H]7C[C@H]8[C@@]9(CC[N@@+]8(CC=C)C/C7=C/CO)c7ccccc7N(/C=C(/[C@@H](C[C@@H]31)/C(=C\CO)C2)[C@H]54)[C@@H]69 [Alcuronium chloride]	99.6
Cc1onc(-c2ccccc2)c1C(=O)N[C@@H]1C(=O)N2[C@@H]1SC(C)(C)[C@@H]2C(=O)O [Oxacillin sodium monohydrate]	100
Cc1onc(-c2ccccc2)c1C(=O)N[C@@H]1C(=O)N2[C@@H]1SC(C)(C)[C@@H]2C(=O)O [Oxacillin sodium]	99.4
